# Reference: PMC4336329 (PLoS ONE, 2015)
# The whole screen tested about 310,000 compounds, of which about 14,000 (4.5%) showed an effect of 50% or more. The effect is printed as a negative number. The list shows a part of the results.
# Molecular target: human ether-à-go-go-related gene (hERG) potassium channel (human, UniProt Q12809)
# Assay: primary screen, population patch clamp on CHO cells stably expressing hERG
# 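Also: peak tail current of the secondary pulse compared with the same well before compound.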
# Chain of human ether-à-go-go-related gene (hERG) potassium channel (Q12809 whole entry, looked up): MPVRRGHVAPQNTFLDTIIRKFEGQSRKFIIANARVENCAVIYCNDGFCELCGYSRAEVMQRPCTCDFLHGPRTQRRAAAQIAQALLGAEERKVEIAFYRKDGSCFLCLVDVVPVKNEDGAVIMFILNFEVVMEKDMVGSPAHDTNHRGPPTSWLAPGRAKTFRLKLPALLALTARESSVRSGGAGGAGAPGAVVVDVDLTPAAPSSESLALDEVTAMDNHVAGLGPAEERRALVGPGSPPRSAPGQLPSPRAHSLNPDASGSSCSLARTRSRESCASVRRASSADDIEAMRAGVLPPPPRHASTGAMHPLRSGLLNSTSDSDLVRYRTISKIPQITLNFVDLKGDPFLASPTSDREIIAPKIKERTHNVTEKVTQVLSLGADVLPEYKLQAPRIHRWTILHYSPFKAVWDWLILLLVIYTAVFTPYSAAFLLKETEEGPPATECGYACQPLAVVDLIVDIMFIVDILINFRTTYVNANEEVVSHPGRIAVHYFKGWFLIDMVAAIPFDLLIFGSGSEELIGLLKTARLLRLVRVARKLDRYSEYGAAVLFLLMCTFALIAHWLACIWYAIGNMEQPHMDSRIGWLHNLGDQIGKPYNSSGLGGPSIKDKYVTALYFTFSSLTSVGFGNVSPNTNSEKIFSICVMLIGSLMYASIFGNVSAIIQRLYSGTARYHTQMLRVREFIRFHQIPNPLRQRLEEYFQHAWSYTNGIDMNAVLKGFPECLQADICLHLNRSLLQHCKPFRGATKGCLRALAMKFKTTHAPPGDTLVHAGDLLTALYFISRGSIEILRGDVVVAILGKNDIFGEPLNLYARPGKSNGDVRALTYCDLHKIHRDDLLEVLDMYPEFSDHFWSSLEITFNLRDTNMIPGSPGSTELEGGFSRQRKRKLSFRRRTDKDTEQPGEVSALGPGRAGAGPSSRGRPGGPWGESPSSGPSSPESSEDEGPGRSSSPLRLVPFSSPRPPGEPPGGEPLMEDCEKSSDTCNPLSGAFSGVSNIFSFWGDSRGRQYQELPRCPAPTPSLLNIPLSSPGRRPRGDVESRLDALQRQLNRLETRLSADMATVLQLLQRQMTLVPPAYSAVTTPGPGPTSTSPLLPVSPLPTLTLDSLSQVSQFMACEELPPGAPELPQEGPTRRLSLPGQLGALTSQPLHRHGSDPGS
row,SMILES,"hERG current change (%, negative = inhibition) at 10uM [%]"
1,[O-]/[N+](=C\c1cccc(Br)c1)c1ccccc1,12.5
2,COc1cccc(C#Cc2c(C=O)n(C)c3ccccc23)c1,10.3
3,O=C(NNC(=S)NC(=O)c1ccc(Br)cc1)c1ccc([N+](=O)[O-])cc1,16
4,CCOc1ccccc1/C=N/NC(=O)CNC(=O)c1cccs1,-42.4
5,COc1cccc(NC(=O)Cn2nnc(C(=O)Nc3ccccc3)c2N)c1,-8.33
6,O=C(N/N=C/c1cn(-c2cccs2)nc1-c1ccccc1)c1ccccc1Cl,-11.4
7,Cc1c(CC(=O)NCCCC(=O)O)c(=O)oc2cc3occ(-c4ccccc4)c3cc12,11.4
8,CCCCNC(=O)C1CCCN1C(=O)Nc1cccc(OC)c1 (stereo not drawn),14
9,CCN1CCN(CNC(=O)c2cnccn2)CC1,15.4
10,Cc1ccc(C(O)Cn2nc(C)cc2C)cc1 (stereo not drawn),13.7
11,Cc1cc(C)c2c(=O)cc(C(F)(F)F)oc2n1,34.7
12,CC1CC(C)CN(C(=O)COC(=O)c2ccc3c(c2)OCO3)C1 (stereo not drawn),-17.6
13,Cc1cccc(N2CCN(C(=O)C3CC(=O)N(C4CCCC4)C3)CC2)c1C (stereo not drawn),-57.9
14,O=C(CCn1c(=O)oc2ccccc21)N1CCN(c2ccccc2F)CC1,-23.8
15,Fc1ccc(/C=N/Nc2nn[nH]n2)cc1,10.7
16,COc1ccc(Nc2nc(CC(C)=O)ns2)cc1,8.65
17,Cc1ccc2occ(/C=N/NC(=O)c3ccc(O)cc3)c(=O)c2c1,-3.7
18,CCC(=O)Nc1cc(C(=O)OCC(=O)c2ccc(Cl)cc2Cl)ccc1C,1.89
19,CN(C)C=O.Cc1cc(C)nc(NC(=O)CSc2nc3cc(Cl)ccc3s2)n1,-6.21
20,Cc1n[nH]c(C)c1CCN(C)Cc1cn(C)nc1-c1ccc2c(c1)OCCO2,-4.42
21,Cc1sc2nc(CN3CCOCC3)[nH]c(=S)c2c1C,-21.5
22,COc1cccc(-n2nnc3c(=O)n(CC(=O)N4CCCc5ccccc54)cnc32)c1,-10.3
23,Cn1ncc(Cl)c1C(=O)Nc1cccc(Cl)c1,-11.2

row,SMILES,"hERG current change (%, negative = inhibition) at 10uM [%]"
1,Cc1nn(-c2ccccc2)nc1CNC(=O)C1CC1,6.65
2,CCOC(=O)Cn1c2[n+](c3ccccc31)CC(O)CS2.[I-] (stereo not drawn),16.3
3,O=C1CC(c2ccc(S(=O)(=O)N3CCN(c4ccccc4)CC3)cc2)CN1 (stereo not drawn),-10.8
4,Cc1cc(C)n(C(=O)c2ccccc2[N+](=O)[O-])n1,22.7
5,CCc1nc2c(cnn2-c2ccc(Cl)cc2)c(=O)n1-c1ccc2c(c1)OCCO2,-17.9
6,COC(=O)c1c(NC(=O)CN2CCC3(O)CCCCC3C2c2cc(OC)ccc2OC)sc(C)c1C (stereo not drawn),21.9
7,CC(C)c1ccc(/C=N/NC(=O)C2CCCC2)cc1,-9.68
8,COc1ccc(CNS(=O)(=O)c2ccc3c(c2)N(C(C)=O)CCO3)cc1,3.46
9,CCc1sc(C(=O)NCCc2ccc(S(N)(=O)=O)cc2)cc1Br,-9.36
10,C[N+](C)(C)CC(O)CC(=O)O.[Cl-] (stereo not drawn),-2.12
11,COc1ccc(N(CC(=O)Nc2ccccc2SC)S(C)(=O)=O)cc1OC,14.2
12,COc1ccc(Nc2nccc(N(C)C)c2C#N)cc1,5.01
13,CC1=C(CC[C@@H](C)CO)OC2CC3C4CCC5CC(O)CCC5(C)C4CC(=O)C3(C)C12 (stereo partly drawn),4.38
14,CC(C)C(=O)N1CCC(n2nccc2NC(=O)CCc2ccccc2)CC1,18.7
15,CN(C)C=Nc1ncc2c3ccccc3n(CCN(C)C)c2c1C#N,-15.7
16,N#Cc1ccccc1OCC(=O)OCC(=O)c1ccc[nH]1,-12.2
17,COc1ccc([C@H]2CC(=O)C=C(c3ccc4c(c3)OCO4)C2)cc1,-22.9
18,COc1ccc(Nc2oc(-c3cccs3)nc2C#N)cc1,15
19,COc1ccc(-c2cc(C)no2)cc1S(=O)(=O)N1CCN(c2ccc([N+](=O)[O-])cc2)CC1,-76.2
20,Cc1c(Br)c(C(N)=O)nn1C,6.27
21,CCOc1ccc(CN2C(=O)CCC2(C)C(=O)NCc2cccnc2)cc1 (stereo not drawn),-27.1
22,COC(=O)c1c(CSc2ccc(Cl)cc2)noc1C(=O)NCc1ccco1,-3.11
